# Data: PMC12040169 (PLOS Biology, 2025)
# This is one part of the list.
# Tested on: T1, C. trachomatis L2/434/Bu expressing GFP (CTL2-GFP)
# T1 construct: L2/434/Bu GFP intracellular growth in HeLa cells
# Design: species or system HeLa; C. trachomatis total inclusion area by high-content imaging, normalised to DMSO
# Settings: total inclusion area; 28.5 h, 10 µM; inhibitor
# Outline: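 Host cell viability was gauged from Hoechst-stained nuclei counts, while chlamydial growth was taken from total inclusion area and inclusion number per well. Cells were fixed and imaged by high-content microscopy once bulk GFP and resorufin fluorescence had been measured.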
row,Compound,% of control remaining
1,O=C(O)c1cc2c(s1)CN(C1CCCCC1)C2 [CBK286885],101.185
2,O=C(c1cc(F)c(F)cc1F)N1CCC2(CCN(C(=O)C3COc4ccccc4O3)C2)C1 (stereo not shown) [CBK131390],81.7649
3,COc1cc([N+](=O)[O-])cc2cc(C(=O)NNC(=O)c3ccccc3Cl)c(=O)oc12 [CBK267011],109.169
4,O=c1[nH]c2ccccc2n1C1CCN(S(=O)(=O)c2cccs2)CC1 [CBK149689],84.7446
5,O=C1c2ccccc2NC(c2ccc(O)cc2)N1/N=C/c1ccc(O)cc1 (stereo not shown) [CBK262985],93.0074
6,CC(C)(C)c1cc(C[C@H]2CNCC[C@H]2CC(=O)N2CCN(c3ccccn3)CC2)no1 [CBK288799],111.986
7,O=C(N[C@@H]1CCOC[C@H]1Oc1ccc(CO)cc1)c1ccc(F)cc1 [CBK306571],53.5866
8,O=C1c2ccccc2CN1c1ccc(Cl)cc1Cl [CBK109908],73.0193
9,c1csc(CN2CCC[C@H]2c2nc(-c3ccc(-n4ccnc4)nc3)no2)c1 [CBK288895],87.7436
10,CCCN1C[C@H](NC(=O)C2CC2)[C@@H](c2ccc(OC)cc2)C1 [CBK282518],118.893
11,Cc1cccc(NC(=O)NC(=O)C2CCN(CCOc3ccccc3)CC2)c1 [CBK034868],96.6163
12,CN(C)CCCN1C(=O)C(O)=C(C(=O)c2ccccc2)C1c1ccccn1 (stereo not shown) [CBK287778],99.6589
13,O=c1oc2cc(Oc3ccc([N+](=O)[O-])cc3C(F)(F)F)c(Cl)cc2c2c1CCCC2 [CBK264914],121.094
14,O=C(Nc1ccc(F)cc1)c1ccsc1NS(=O)(=O)Cc1ccccc1[N+](=O)[O-] [CBK042313],101.628
15,Cc1cc(N)n(CC(=O)NCCCn2ccnc2C(C)C)n1 [CBK306632],78.8126
16,CCn1c2ccccc2c2ccc(/C=N/NC(=O)c3ccc(O)cc3O)cc21 [CBK262948],36.028
17,Cc1ccc(C2C(C(=O)c3cccs3)=C(O)C(=O)N2CCN2CCOCC2)o1 (stereo not shown) [CBK264559],105.556
18,CC12CCC(=O)N1C(C(=O)NCCNc1ccc(S(C)(=O)=O)cc1[N+](=O)[O-])CS2 (stereo not shown) [CBK296661],74.9062
19,CN(C)c1nc2c(c(-c3cncc(N)c3)n1)CCCC2 [CBK307503],70.8604
20,CC(C)(C)c1ccc(S(=O)(=O)N2CCN(CCC(=O)O)CC2)cc1 [CBK297089],71.6418
21,COc1ccc(-c2cc3nnc(C)nc3s2)cc1 [CBK025638],40.4214
22,CN(C)c1ccc(C=Nc2ccc(NC(=O)CCC(=O)O)cc2)cc1 [CBK296091],95.3848
23,Cc1oc(-c2ccccc2)cc1C(=O)NCc1ccc(OC2CCNCC2)cc1 [CBK038915T],72.2642
24,CCc1nc(CNC(=O)c2cc3cc(F)ccc3n2C)no1 [CBK281414],81.4415
25,OCc1ccccc1-c1cncc(N2CCN(c3ccncc3)CC2)n1 [CBK065208],108.889
26,Cc1cc(C(C)(C)C)ccc1OCCNCCN [CBK265097G],107.346
27,COc1ccc(C(NC(=O)[C@H]2CCCN2C(=O)c2c(-c3ccccc3)noc2C)c2ccccc2C)cn1 (stereo partly shown) [CBK075055],77.6261

row,Compound,% of control remaining
1,COc1ccc(Cn2nc(NC(=O)Nc3c(C)noc3C)c3ccccc32)cc1 [CBK048528],72.064
2,C/C(CS(=O)(=O)c1ccccc1)=N/NC(N)=S [CBK026285],67.068
3,O=C(NCc1ccc2c(c1)OCO2)c1ccc(Oc2ccccc2)cc1 [CBK293982],76.9346
4,COc1cccc(CCC(=O)n2ccn(CCCOc3ccccc3)c2=O)c1 [CBK106565],98.1186
5,CC(C)CCNC(=O)c1cccc(-n2c(=S)[nH]c3cc(Cl)ccc3c2=O)c1 [CBK294444],101.171
6,O=C(Cc1csc2ccccc12)Nc1cnc(-c2ccc(F)cc2)c(-c2ccoc2)n1 [CBK037102],101.337
7,Cc1nn(C)c(C)c1NC(=O)COc1ccccc1C#N [CBK305850],85.4939
8,CCN(CC)c1ccc(NC(=O)COc2ccccc2)cc1 [CBK096048],114.111
9,Cc1cc(CN(C)Cc2c(C)nc3ccc(Cl)cn23)n[nH]1 [CBK281913],96.0186
10,c1ccc([C@@H]2CN(Cc3ccccn3)C[C@H]2c2cc[nH]n2)cc1 [CBK285162],103.279
11,COc1ccc([C@H]2C3CCCCC3[C@@H]2NC(=O)C2CCCO2)cc1 (stereo partly shown) [CBK282990],91.6285
12,CCn1c(CN2CCC(c3noc(C)n3)CC2)nc2c(F)cccc21 [CBK304960],59.9749
13,Clc1ccc(CN2CCN(c3nccnc3OCc3cccnc3)CC2)cc1 [CBK083130T],88.6645
14,O=C(Nc1ccc(N2CCNCC2)nc1)c1ccccc1 [CBK028277T],95.7434
15,CCCCN(C)S(=O)(=O)NCc1cn2ccccc2n1 [CBK306329],80.9817
16,CSCCCNC(=O)N(Cc1cccnc1)Cc1ccc2c(c1)OCO2 [CBK159426],85.6704
17,Cc1nnc2sc(-c3ccc(NC(=S)NC(=O)c4cc5ccccc5o4)cc3)nn12 [CBK266795],84.2112
18,C=CCc1cccc(Cl)c1OCCN1CCNCC1 [CBK266071G],112.977
19,CC1CCc2c(sc3ncnc(OCC(=O)N4CCOCC4)c23)C1 (stereo not shown) [CBK306000],97.5481
20,[O-][N+]1=C2CCc3c(no[n+]3[O-])C2(O)CC1N1CCOCC1 (stereo not shown) [CBK261515],73.9651
21,O=C(CN1CCCN(c2nccs2)CC1)Nc1cc(Cl)ccc1Cl [CBK305921],120.146
22,CN(C)c1cccc(C(=O)Nc2cnc(-c3cccc(C(F)(F)F)c3)c(-c3cccnc3)n2)c1 [CBK036752],93.3665
23,COc1ccccc1C(NC(=O)N(C(C)C)C(C)C)c1nccn1C (stereo not shown) [CBK283834],103.624
24,O=C(CN1CCOCC1)N1CCN(CCc2ccccc2)CC1 [CBK200215],90.5311
25,CC(=O)N1CCC(N2CC[C@H](c3nnc(C(C)(C)C)o3)C2)CC1 [CBK289404],113.518
26,O=S(=O)(Nc1cccc2nonc12)c1ccccc1Br [CBK062577],91.5451
27,Cc1nc(C2CCCCN2C(=O)COc2ccccc2)ncc1C(=O)Nc1ccc(F)cc1 (stereo not shown) [CBK285871],102.267

row,Compound,% of control remaining
1,O=C(O)c1ccccc1SC(C[N+](=O)[O-])c1ccccc1Cl (stereo not shown) [CBK097071],95.69
2,COc1nccnc1N1CCN(CCSC)CC1 [CBK084227],111.06
3,Cc1csc(C(Cc2cccs2)NC(=O)Cc2c(C)[nH]c(=O)[nH]c2=O)n1 (stereo not shown) [CBK286345],89.6949
4,C[C@H](Nc1nc(-c2ccc(-c3ccccc3)cc2)cnc1N)c1ccccc1 [CBK063760],103.852
5,Cc1cccc(CSc2nc3ncccc3[nH]2)c1 [CBK287963],79.9431
6,COC(=O)c1ccc(NS(=O)(=O)c2cc(Cl)sc2Cl)cc1 [CBK028684],81.2905
7,CS(=O)(=O)N1CCCc2cc(-c3csc(N4CCOCC4)n3)ccc21 [CBK305022],33.4678
8,O=C(CNc1n[nH]c(=O)[nH]c1=O)N/N=C/c1ccc(C(=O)O)cc1 [CBK263529],108.043
9,COc1cc([N+](=O)[O-])ccc1NC(=O)C1CC(Cl)=CCC1C(=O)O (stereo not shown) [CBK264956],135.846
10,CC(C)NC(=O)N[C@H]1CCN2C(=O)c3cc(-c4ccccc4)ccc3NC(=O)[C@H]12 [CBK289351],85.4521
11,CC(C)OC(=O)c1ccc(NC(=O)c2csc3c2CCCC3)cc1 [CBK058649],79.2401
12,CCOC(=O)c1nc(C)sc1-c1ccnn1S(C)(=O)=O [CBK007130],105.821
13,CC(C)C(c1nnnn1Cc1ccccc1)N1CCOCC1 (stereo not shown) [CBK028054],79.0525
14,CC(C)c1cc2cc3ccc(=O)oc3cc2o1 [CBK033944],71.5396
15,CCN1CC2(CCCN(Cc3nnc(-c4cccnc4)o3)C2)CCC1=O (stereo not shown) [CBK306881],61.6824
16,c1ccc2cc(CCN3CCC(Oc4nccnc4OCCN4CCOCC4)CC3)ccc2c1 [CBK082942T],92.2332
17,Cc1nn(Cc2ccc(Cl)cc2)c(C)c1NC(=O)CCC(=O)O [CBK287051],111.72
18,CC1CCCCN1C(=O)CCn1c(-c2ccncc2)cc2cccnc21 (stereo not shown) [CBK282689],109.97
19,CCOC(=O)c1sc2nc(N3CCOCC3)c3c(c2c1N)CCCC3 [CBK131870],81.2686
20,Cc1ncccc1-c1cc2cccnc2n1CCCNC(=O)C1CC1 [CBK282687],96.4618
21,COC(=O)c1ccccc1NC(=O)c1ccc(-n2cnnn2)cc1 [CBK058360],63.7501
22,O=C(Nc1ccc2c(c1)OCCO2)c1cc(S(=O)(=O)N2CCCCC2)c(Cl)cc1Cl [CBK265790],130.997
23,Cn1nc(CC(=O)Nc2ccc(OC(=O)c3ccccc3)cc2)c2ccccc2c1=O [CBK264057],110.713
24,COc1cccc(CCC(=O)Nc2cnc(-c3cccc(C(F)(F)F)c3)c(-c3cccnc3)n2)c1 [CBK036835],93.3595
25,Cc1ccc(-c2nnc(COC(=O)c3c4c(nc5ccccc35)CCCC4)o2)cc1 [CBK269728],62.5921
